# Results published in PubChem BioAssay AID1159614 (National Center for Advancing Translational Sciences (NCATS), 2016).
# Among all 45,000 compounds or so, about 65 (0.1%) were called active. Calls follow the shape of the dose curve; as a rule, active = well fitted activation curve with a large enough effect; inconclusive = small, poorly fitted or top-dose-only effect; inactive = no such curve, though single readings can be large or run the other way. This is one part of the list.
# Target: Galactocerebrosidase (Homo sapiens) (UniProt P54803)
# Assay: A Novel Cell-Based Assay to Identify Small Molecules for B -Galactocerebrosidase; also: 0% is about no effect; nearly all actives have a fitted effect of over 65% in size
# Details: 145M-Twi-hGALC-G270D cells (Twitcher mouse brain line with human GALC G270D), HMU-beta-Gal fluorescence, 48 h; series mostly up to 57.5 µM; activation: at the top concentration
# Text: Lysosomal storage diseases (LSDs) are caused by genetic mutations in genes encoding proteins important for normal lysosomal function. Globoid cell leukodystrophy (GLD), mostly known as Krabbe disease, is a prototype of the neurological LSDs caused by deficiency of beta-galactocerebrosidase (GALC). In brain specimens of GLD patients, psychosine levels are substantially elevated. At elevated concentrations, psychosine becomes cytotoxic to neuronal cells, particularly to oligodendrocytes (OLG), neural cells responsible for myelin formation. Therefore, the biochemical disturbances in GLD are manifested by different degrees of brain demyelination resulting in a broad spectrum of neurological manifestations. Most of the FDA-approved therapies are based on enzyme replacement therapeutic (ERT) agents, which treat non-neurological symptoms of Gaucher disease, Fabry disease, few mucopolysaccharidoses and Pompe disease. Unfortunately, in GLD, a primarily neurological LSD, ERT agents, as large molecular weight molecules unable to cross the blood-brain barrier, which makes this an inefficacious therapeutic approach. In GLD, increasing the residual GALC activity just above the critical threshold (~10% of wild type enzymatic activity), the cytotoxic levels of psychosine will be reduced, avoiding the OLGs apoptosis and the subsequent demyelination process. This will translate in disease stabilization and amelioration of GLD patient symptoms.
# A cell-based assay in 1,536-well plate format was developed to implement a quantitative high-throughput screening (qHTS) assay using GLD-disease relevant cells to identify small molecules that produce enhancements of the residual enzymatic activity levels of mutants GALC found and prevalent in GLD patients. Compounds that are active may therefore have some therapeutic application for GLD. After the treatment of live cells for a determined period, using a fluorescent GALC specific substrate, the mutant residual GALC activity is measured. This cell-based qTHS assay was used to screen part of the MLPCN library for small molecule able to increase the mutant GALC enzymatic activity. In this assay, increased fluorescent signal corresponds to enhanced levels of mutant GALC residual enzymatic activity. Activation is the desired outcome for this assay.
# NIH Chemical Genomics Center [NCGC]
# NIH Molecular Libraries Probe Centers Network [MLPCN]
# Assay Submitter (PI): Gustavo Maegawa MD,PhD, University of Florida, Gainesville, FL
# 2)#Two cell lines were established for the assay: 145M-Twi-hGALC-G270D (brain-derived Twitcher cell line stably expressing human GALC-G270D) and 145M-Twi-hGALC-WT (same 145M-Twi stably expressing human GALC wild type). The Twitcher is the murine C57B/6 model for GLD with naturally occurring homozygous nonsense GALC mutation. The 145M-Twi cell line was established at Maegawa lab (Ribbens J et al 2014).
# a.#Media: DMEM/F12 (1:1) with 10% fetal bovine-serum (FBS) with penicillin/streptomycin (PS-1X - 100 I.U./mL of penicillin+100 ug/mL of streptomycin).
# b.#The 6-Hexadecanoylamino-4-methylumbelliferyl-b-D-galactoside (HMU-B-gal) substrate was prepared as per Wiederschain et al 1992. Using 20-mL borosilicate tubes, 2.20 mg of HMU-b-Gal was added in each tube to prepare substrate-film with a final air-nitrogen stream evaporation to remove all diluent solvents.
# c.#The HMUb-Gal substrate buffer consists of 0.2 M Na2HPO4 (sodium phosphate dibasic)/ 0.1 M Citric Acid with the pH adjusted to 5.2 using HCl. Sodium Azide at 0.02% and Sodium Taurocholate (NaTC) at 1 mg/mL were added to this substrate buffer.
# d.#The HMU-b-Gal stopping buffer consist of 0.5 M NaHCO3 (sodium bicarbonate) /0.5 M Na2CO3 (sodium carbonate). […] Triton X-100 at 0.25% was added.
# 4)#Preparation of HMU-b-Gal substrate tubes
# Adding 18.6 mL of the HMUb-Gal substrate buffer to each 20-mL tube (2.20 mg of HMU-b-Gal) will reach a concentration of 0.2 mM. Vortex well the tube until the solution is fully homogenized (clear cloudy solution). […]
# UniProt P54803, sequence (P54803 whole entry, looked up): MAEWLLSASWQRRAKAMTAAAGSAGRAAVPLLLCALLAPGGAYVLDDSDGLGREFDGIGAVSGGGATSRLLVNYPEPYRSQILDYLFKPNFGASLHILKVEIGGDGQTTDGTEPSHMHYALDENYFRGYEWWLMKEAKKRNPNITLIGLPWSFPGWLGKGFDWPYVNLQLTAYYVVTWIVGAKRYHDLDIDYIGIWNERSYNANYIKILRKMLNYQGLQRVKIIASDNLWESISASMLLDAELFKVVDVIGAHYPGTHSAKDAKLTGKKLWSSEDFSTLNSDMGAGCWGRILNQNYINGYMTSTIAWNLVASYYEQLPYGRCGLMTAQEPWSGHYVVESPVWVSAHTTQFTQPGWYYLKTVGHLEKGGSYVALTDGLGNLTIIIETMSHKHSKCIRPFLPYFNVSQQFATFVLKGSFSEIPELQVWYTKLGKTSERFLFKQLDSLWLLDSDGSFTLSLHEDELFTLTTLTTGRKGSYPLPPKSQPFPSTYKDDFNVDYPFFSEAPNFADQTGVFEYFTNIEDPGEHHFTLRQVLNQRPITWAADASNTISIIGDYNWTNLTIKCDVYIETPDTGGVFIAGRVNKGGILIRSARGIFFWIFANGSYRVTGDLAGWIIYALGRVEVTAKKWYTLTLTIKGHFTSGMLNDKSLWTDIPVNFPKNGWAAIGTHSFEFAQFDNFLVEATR
row,SMILES,activation
1,CCOc1ccc(CCNC(=O)c2sc3ncccc3c2-n2c(C)ccc2C)cc1,inactive: -0.361%
2,Cc1ccc(-n2nc(C)c3c(C)c(CCC(=O)NCc4ccccc4Cl)c(C)nc32)cc1,inactive: -16.1%
3,CC(=O)NCCNC(=O)c1ccc2c(=O)n(CCc3ccccc3)c(=O)[nH]c2c1,inactive: -2.08%
4,COc1ccc(C2=C(C(C)=O)Sc3nnc(-c4ccccc4)n3N2C(C)=O)cc1,inactive: -8.76%
5,Cc1nc2nc(C)c(CCC(=O)NCc3cccc(Cl)c3)c(C)n2n1,inactive: -0.0245%
6,O=C(Cn1c(=O)n(Cc2ccco2)c(=O)c2sc3ccccc3c21)Nc1ccccc1C(F)(F)F,inactive: -16.6%
7,CCOc1cc(C2NC(=O)c3c(sc4c3CCN(C)C4)N2)ccc1OC(=O)c1ccc(F)cc1 (configuration not stated),inactive: -11.2%
8,CCCCNC(=O)NS(=O)(=O)c1ccc(N)cc1,inactive: -14.3%
9,COc1cc(NC(=O)c2cc3cc4cc(OC)ccc4nc3o2)cc(OC)c1,inactive: -1.89%
10,Fc1ccc(Cc2cn3cc(-c4ccc(F)cc4)nc3s2)cc1,inactive: -16.5%
11,COC(=O)c1ccccc1NC(=O)CCc1c(C)nc2cc(-c3ccc(Cl)cc3)nn2c1C,inactive: -9.89%
12,CC(=O)c1cc(-c2ccc(F)cc2)n(CCC(=O)NC2CCCCC2)c1C,inactive: -5.13%
13,COc1cc(C2CC(=O)N(CC(=O)Nc3ccccc3F)c3ccccc3S2)cc(OC)c1OC (configuration not stated),inactive: -12.7%
14,CCC(C(=O)NCCc1ccc(SC)cc1)n1nc(C)c2c(C)n(-c3ccc(C)cc3)nc2c1=O (configuration not stated),inactive: -8.72%
15,Cc1ccc(-n2nc(CO)c(C(=O)NC(C)c3ccccc3)n2)cc1C (configuration not stated),inactive: 2.93%
16,COC(=O)c1sc2ccccc2c1S(=O)(=O)N1CCN(c2ccc(C(C)=O)cc2)CC1,inactive: -13.7%
17,Cc1ccc(CCNC(=O)c2ccc(CSc3nc4ccncc4n3Cc3ccc(F)cc3)cc2)cc1,inactive: -15%
18,O=S(=O)(Nc1cccc(-c2ccc(N3CCCCC3)nn2)c1)c1ccc(F)cc1F,inactive: -6.99%
19,CSc1ccc(CCNC(=O)CCc2c(C)nc3c4cccnc4nn3c2C)cc1,inactive: -15.3%
20,CCSc1nc2sc3c(c2c(=O)n1-c1ccc(C)cc1)CCCC3,inactive: -3.7%
21,O=C(CC1N=C2c3ccccc3N=C(SCc3cccc(F)c3)N2C1=O)NC1CCCCC1 (configuration not stated),inactive: -9.45%
22,COc1cccc(CNCc2c(C(=O)O)c(C)n(Cc3ccc(F)cc3Cl)c2C)c1OC,inactive: -11.7%
23,O=C(Nc1ccc(F)c(F)c1)c1ccc(F)c(S(=O)(=O)N2CCC3(CC2)OCCO3)c1,inactive: -18.1%
24,Cc1ccc(Cl)cc1N1CCN(C(=O)c2cn(C)c3ccc(S(=O)(=O)N4CCCCC4)cc3c2=O)CC1,inactive: -17.1%

row,SMILES,activation
1,CC(C)CNc1cc(NC2CCCCC2)c2c3c(onc13)-c1ccccc1C2=O,inactive: -12.8%
2,COc1ccc(NC(=O)CSc2c(C(C)C)cnc3c2c(=O)n(C)c(=O)n3C)c(OC)c1,inactive: -13.3%
3,COc1ccc2cc3c(N)nn(C(=O)c4ccc(F)cc4Cl)c3nc2c1,inactive: 0.598%
4,CCn1c(=O)n(CC2CCC(C(=O)NC(C)C)CC2)c(=O)c2sccc21 (configuration not stated),inactive: -9.56%
5,CCOC(=O)c1c(C)[nH]c(C)c1S(=O)(=O)N1CCC(C(=O)Nc2ccc(OC)c(OC)c2)CC1,inactive: -22.9%
6,CCN1CCN(c2ncnc3c2cnn3-c2ccc(F)cc2)CC1,inactive: -10.4%
7,CCOC(=O)c1cc(CC)sc1NC(=O)COc1ccccc1C,inactive: -8.23%
8,COc1ccc(C(=O)NCC(c2ccc3c(c2)OCO3)N2CCN(C)CC2)cc1OC (configuration not stated),inactive: -21.1%
9,Cc1cc(NC(=O)CN2CCC(O)CC2)nc2c1c(=O)oc1ccccc12,inactive: -15.4%
10,COc1ccc(NC(=O)c2ccc3oc(=O)c(S(=O)(=O)c4ccc(F)cc4)cc3c2)c(OC)c1,inactive: -17.1%
11,CC(C)c1nc2sc3c(N4CCCCC4)ncnc3c2c2c1CCCC2,inactive: -11.1%
12,COc1ccc(CC(=O)Nc2ccc(-c3nc4ccccc4s3)c(C)c2)cc1,inactive: -18.8%
13,CCOc1ccc(-n2c(SCC(=O)c3ccccc3)nc3c([nH]c4ccccc43)c2=O)cc1,inactive: -0.88%
14,Cc1ccc(Cl)cc1N1CCN(C(=O)c2cc(S(=O)(=O)N3CCCCC3)cn2C)CC1,inactive: -27.6%
15,COc1ccc(C(=O)Oc2ccc(C3NC(=O)c4c(sc5c4CCN(C)C5)N3)cc2OC)cc1 (configuration not stated),inactive: -13.8%
16,COCC(C)Nc1ncnc2c1cnn2-c1cccc(Cl)c1 (configuration not stated),inactive: -7.74%
17,COC(=O)c1ccc(CSc2nc3ccncc3n2Cc2ccc(F)cc2)cc1,inactive: -4.98%
18,CC(=O)Nc1ccccc1-c1nc2ccccc2n(C(C)C(=O)Nc2cccc(C)c2C)c1=O (configuration not stated),inactive: 8.85%
19,CC(=O)N(Cc1cccnc1)c1nc2cc(C)cc(C)c2s1,inactive: -8.88%
20,Cc1ccc(-n2c(=O)[nH]c3sc4c(c3c2=O)CCCC4)cc1,inactive: -14%
21,O=S(=O)(c1ccc(Cl)cc1)c1nnn2c1nc(NCc1ccccc1)c1sccc12,inactive: -13.6%
22,O=C(Nc1ccccc1)N(Cc1cccs1)c1ccc(Cl)cc1,inactive: -12.5%
23,CCOc1ccc(NC(=O)CC2C(=O)N(c3cccc(C)c3)C(=O)N2CCC2=CCCCC2)cc1 (configuration not stated),inactive: -17.7%
